MIC of multidrug-resistant clinical P. aeruginosa isolates by reference broth microdilution, Sensititre or Phoenix panel; µg/mL of the β-lactam, with the inhibitor fixed at 4 µg/mL where named; higher = less susceptible; each panel covers only a few steps. No active / inactive call per row; the paper applies CLSI M100 breakpoints. The methods often differ by one or more steps on the same isolate. Several isolates can come from one patient. PDC is the chromosomal AmpC β-lactamase of the species; the number names its allele. Isolates are numbered anew.
What was measured:
Assay in all cases: Reference broth microdilution (once per isolate) and two commercial panels; inhibitor fixed at 4 µg/mL.
ceftazidime = compound: CC(C)(O/N=C(\C(=O)N[C@@H]1C(=O)N2C(C(=O)[O-])=C(C[n+]3ccccc3)CS[C@H]12)c1csc(N)n1)C(=O)O [ceftazidime] (with: avibactam 4 µg/mL)
imipenem = compound: C[C@@H](O)[C@H]1C(=O)N2C(C(=O)O)=C(SCCNC=N)C[C@H]12 [imipenem]; conditions: reference broth microdilution
ceftolozane = compound: Cn1c(N)c(NC(=O)NCCN)c[n+]1CC1=C(C(=O)[O-])N2C(=O)[C@@H](NC(=O)/C(=N\OC(C)(C)C(=O)O)c3nsc(N)n3)[C@H]2SC1 [ceftolozane] (with: tazobactam 4 µg/mL)

| Test System | MIC (ceftazidime; BD Phoenix panel) [µg/mL] | MIC (ceftazidime; reference broth microdilution) [µg/mL] | MIC (imipenem) [µg/mL] | MIC (ceftolozane; BD Phoenix panel) [µg/mL] | MIC (ceftolozane; reference broth microdilution) [µg/mL] | MIC (ceftazidime; Sensititre panel) [µg/mL] | MIC (ceftolozane; Sensititre panel) [µg/mL] |
| --- | --- | --- | --- | --- | --- | --- | --- |
| Pseudomonas aeruginosa isolate 48 (PDC allele: blaPDC-41) | 4 | 8 | > 8 | 8 | 8 | – | – |
| Pseudomonas aeruginosa isolate 49 (PDC allele: blaPDC-3) | 4 | 8 | 2 | ≤ 1 | 4 | 8 | 2 |
| Pseudomonas aeruginosa isolate 50 (PDC allele: blaPDC-1) | 2 | ≤ 4 | 2 | 2 | 2 | ≤ 4 | 2 |
| Pseudomonas aeruginosa isolate 51 (PDC allele: blaPDC) | > 8 | 16 | > 8 | 2 | 2 | 16 | ≤ 1 |
| Pseudomonas aeruginosa isolate 52 (PDC allele: blaPDC-3) | 4 | ≤ 4 | 2 | ≤ 1 | 2 | ≤ 4 | 8 |
| Pseudomonas aeruginosa isolate 54 (PDC allele: blaPDC-8) | 4 | ≤ 4 | ≤ 1 | ≤ 1 | ≤ 1 | – | – |
| Pseudomonas aeruginosa isolate 55 (PDC allele: blaPDC-8) | 8 | 16 | > 8 | 4 | 4 | > 16 | 4 |
| Pseudomonas aeruginosa isolate 56 (PDC allele: blaPDC-34) | 1 | ≤ 4 | 8 | 2 | 2 | – | – |
| Pseudomonas aeruginosa isolate 57 (PDC allele: blaPDC-162) | 2 | ≤ 4 | ≤ 1 | ≤ 1 | 2 | – | – |
| Pseudomonas aeruginosa isolate 58 (PDC allele: blaPDC-1) | 8 | 16 | 8 | 2 | 4 | 16 | 4 |
| Pseudomonas aeruginosa isolate 59 (PDC allele: blaPDC-121) | > 8 | 16 | 8 | 2 | 2 | 16 | 2 |
| Pseudomonas aeruginosa isolate 60 (ESBL gene: blaPAC-1, PDC allele: blaPDC-36) | > 8 | ≥ 32 | > 8 | > 8 | ≥ 16 | – | – |
| Pseudomonas aeruginosa isolate 61 (PDC allele: blaPDC-402) | > 8 | 8 | 8 | 2 | ≤ 1 | – | – |
| Pseudomonas aeruginosa isolate 62 (PDC allele: blaPDC-3) | 8 | 8 | > 8 | ≤ 1 | ≤ 1 | 16 | 2 |
| Pseudomonas aeruginosa isolate 63 (PDC allele: blaPDC-37) | 8 | 16 | > 8 | 2 | 8 | – | – |
| Pseudomonas aeruginosa isolate 64 (PDC allele: blaPDC-6) | 8 | ≥ 32 | > 8 | 4 | 8 | – | – |
| Pseudomonas aeruginosa isolate 66 (PDC allele: blaPDC-1) | 2 | ≤ 4 | > 8 | 2 | ≤ 1 | – | – |
| Pseudomonas aeruginosa isolate 67 (PDC allele: blaPDC-41) | 8 | ≤ 4 | 8 | 2 | ≤ 1 | 8 | ≤ 1 |
| Pseudomonas aeruginosa isolate 69 (PDC allele: blaPDC-34) | 2 | 8 | 4 | ≤ 1 | 4 | ≤ 4 | 8 |
| Pseudomonas aeruginosa isolate 70 (PDC allele: blaPDC-364) | 8 | 8 | ≤ 1 | ≤ 1 | 2 | – | – |
| Pseudomonas aeruginosa isolate 71 (PDC allele: blaPDC-30) | ≤ 0.25 | 8 | > 8 | ≤ 1 | 4 | 8 | 4 |
| Pseudomonas aeruginosa isolate 72 (PDC allele: blaPDC-1) | 4 | ≤ 4 | 2 | ≤ 1 | ≤ 1 | – | – |

Source: the supplement of paper PMC13016719
